{"source": "patent US5364879A", "about": "“Medical uses of trioxolane and diperoxide compounds” (Cliveden Ltd., priority 1994, dated 1994)", "test_system": "yeast infections of the vagina", "conditions": "suppository every 24 hours; third group", "data": [{"smiles": "Clc1ccccc1C(c1ccccc1)(c1ccccc1)n1ccnc1", "note": "[clotrimazole]", "values": [{"measurement": "yeast assay", "value": "negative"}]}]}
